Results on 54 molecules are retold here after PubChem BioAssay AID1347073 (National Center for Advancing Translational Sciences (NCATS), 2019).

Molecules are shown by their SMILES. In all, about 45,000 compounds went through this assay and about 200 (0.44%) were called active. About 7% were inconclusive and are not listed. The call rests on the fitted dose curve; in most records, active means well fitted activation curve with a large enough effect; inconclusive means small, poorly fitted or top-dose-only effect; inactive means no such curve, though single readings can be large or run the other way. This is one part of the list.

The assay in a line: qHTS of TDP-43 Inhibitors: NCGC Sytravon Library Screen. Further: 0% is about no effect; nearly all actives have a fitted effect of over 55% in size. The note with it: yeast TDP-43 toxicity rescue, BacTiter-Glo growth, 24 h; series mostly up to 46.1 µM; growth rescue (activation): at the top concentration. The method in brief: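 TDP-43-expressing yeast, pregrown in raffinose, seeded at OD600 0.02 in galactose medium with compound for 24 hr at 30 deg C. Growth read by BacTiter-Glo luminescence, so rescue of toxicity appears as activation.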
For orientation: Quantitative high-throughput screening tests each substance at several concentrations.
As to `CCOC(=O)Cn1nnnc1C(CC)N(Cc1cc2ccc(C)cc2[nH]c1=O)C1CCCC1` (centres undefined), the “growth rescue (activation)” value was inactive: 13.8%. For `Cc1ccc(NC(=O)C(=O)Nc2ccc(C)cn2)nc1`, the “growth rescue (activation)” value was inactive: -9.25%. On to `CC1=NN(C(=O)c2ccco2)C(O)(c2ccccc2)C1` (centres undefined), for which the “growth rescue (activation)” value is inactive: 10.7%.

As to `COc1ccccc1N(C)S(=O)(=O)c1ccc(C(=O)OCC(=O)Nc2cc(C)on2)cc1`, the “growth rescue (activation)” value was inactive: 5.9%. The figure for `Nc1ccccc1C(=O)Nc1nccs1` is inactive: 11.3%; for `O=C(COC(=O)c1ccc(S(=O)(=O)NCc2ccco2)cc1)NCc1ccccc1` it is inactive: 4.65%; for `O=C(NCCc1nc2ccccc2[nH]1)c1ccc(Br)o1` it is inactive: -4.54%. Take `Cc1ccc(-c2nnc(SCC(=O)NC(=O)Nc3ccc(C)cc3C)n2N)cc1`: the “growth rescue (activation)” value was inactive: -2.01%. Consider `CCN(CC(=O)NCc1ccc(F)cc1)C(=O)/C=C/c1ccc(OC)c(S(=O)(=O)NC(C)C)c1`, for which the “growth rescue (activation)” value was inactive: -18.8%.

For `COC(=O)[C@H](CC(C)C)NC(=O)N1CCCCC1`, the “growth rescue (activation)” value is inactive: 4.18%.

Consider `CCC(C)(C)C(=O)Nc1cccc(Cl)c1C`, for which the “growth rescue (activation)” value was inactive: 20.5%.

For the molecule `Cc1ccccc1OCC(=O)Nc1nnc(-c2ccncc2)s1`, the “growth rescue (activation)” value was inactive: 3.78%.

As to `CCOC1(OCC)N=C(N)C2(C#N)C(c3cccc(OC)c3OC)C12C#N` (centres undefined), the “growth rescue (activation)” value is inactive: -15.7%. For `COC(CNc1nc(SC)nc2sc3c(c12)CCN(C)C3)OC` the value was inactive: -5.36%. Regarding `Cc1ccc(C(C(=O)NC(C)(C)C)N(CC2CCCO2)C(=O)c2csnn2)cc1` (centres undefined), the “growth rescue (activation)” value was inactive: -12.9%.

Turning to `c1ccc2c(c1)OCCOCCOCCO2`, the “growth rescue (activation)” value was inactive: 20.9%. `Cc1ccc(C(NC(=O)C2CCN(CCOc3ccc(Cl)cc3Cl)CC2)c2ccccn2)cc1` (centres undefined): the “growth rescue (activation)” value is inactive: -5.53%. For the molecule `C=CCSc1nc(C)c(CC(=O)OCC(C)C)c(=O)[nH]1`, the “growth rescue (activation)” value was inactive: -18%. As for `Fc1cccc(-n2ncc3c2ncn2nc(-c4ccccc4Cl)nc32)c1`, the “growth rescue (activation)” value is inactive: 11.8%. In the case of `O=C(Nc1ccon1)c1ccc(F)c(S(=O)(=O)N2CCCCC2)c1`, the “growth rescue (activation)” value is inactive: 6.93%. Take `CC(=O)c1cc(-c2ccccc2)n(CC(=O)Nc2cc(C)cc(C)c2)c1C`: the “growth rescue (activation)” value is inactive: 1.38%.

Regarding `O=C(Oc1ccc(Br)cc1)C1CCN(C2=NS(=O)(=O)c3ccccc32)CC1`, the “growth rescue (activation)” value is inactive: 22%. On to `C=CCc1ccc(OCCCCNC2CCCC2)c(OC)c1`, for which the “growth rescue (activation)” value is inactive: -10.2%. The figure for `COc1ccccc1N1CCN(C(=O)c2cc(-c3ccccc3O)on2)CC1` is inactive: -4.77%; for `CC(=O)OCc1cc2cc(C)ccc2[nH]c1=O` it is inactive: -2.21%; for `Cn1c(O)c(N=NC(=O)Cn2ccc(C(F)(F)F)n2)c2ccccc21` it is inactive: 6.28%. The figure for `COc1cc2c(cc1OC)C(C(=O)Nc1ccc3c(c1)OCCO3)C(c1cccnc1)N(C)C2=O` (centres undefined) is inactive: -6.84%; for `Cc1ccc(S(=O)(=O)N(Cc2cc3ccccc3[nH]c2=O)CC2CCCO2)cc1` (centres undefined) it is inactive: -6.81%. On to `O=C(COC(=O)COc1ccc(Cl)cc1)NCCCc1ccccc1`, for which the “growth rescue (activation)” value is inactive: -8.7%. On to `COc1ccc(CCNC(=O)c2ccc3c(c2)N(Cc2ccc(F)cc2)CCS3)cc1OC`, for which the “growth rescue (activation)” value is inactive: -1.41%. For `Cc1ccccc1NS(=O)(=O)c1ccc(OCC(=O)NCc2ccccn2)cc1`, the “growth rescue (activation)” value is inactive: 2.28%. As for `CCCc1nnc(NC(=O)c2cc3ccccc3oc2=O)s1`, the “growth rescue (activation)” value is inactive: -38.8%. Take `COc1ccc(OCC(=O)NNC(=O)c2cccc(C)c2)cc1`: the “growth rescue (activation)” value was inactive: 5.1%. Regarding `CCCCN=C1NN=C(c2cccc([N+](=O)[O-])c2)CS1`, the “growth rescue (activation)” value is inactive: 20.5%.

As for `O=C(O)CSc1cc(NS(=O)(=O)c2ccc(Cl)cc2)c2ccccc2c1O`, the “growth rescue (activation)” value is inactive: 33.7%. Consider `O=C(Nc1cccnc1)c1cc(-c2ccc(Cl)c(Cl)c2)on1`, for which the “growth rescue (activation)” value was inactive: 29.4%. Regarding `Cc1ccccc1-n1c(SCc2cccc(F)c2)nc2[nH]ncc2c1=O`, the “growth rescue (activation)” value was inactive: 18.5%. Consider `COc1cccc(NC(=O)c2cccc(C(=O)Nc3cccc(OC)c3)n2)c1`, for which the “growth rescue (activation)” value is inactive: 16%. In the case of `Cc1nn(-c2cccc(Cl)c2)c2nc(C(F)(F)F)[nH]c(=O)c12`, the “growth rescue (activation)” value was inactive: -0.254%. In the case of `O=C(Nc1cccc(OCC(=O)N2CCOCC2)c1)c1ccc(C(F)(F)F)cc1`, the “growth rescue (activation)” value was inactive: 16%. For the molecule `Cc1ccccc1NC(=O)CSc1ccncc1`, the “growth rescue (activation)” value is inactive: 5.71%. For `CC(C)n1c(CNC(=O)c2ccccc2F)nnc1SCC(=O)NC1CCCCC1`, the “growth rescue (activation)” value is inactive: -0.318%. Turning to `O=C(Nc1ccccc1C(=O)N1CCCCC1)c1ccco1`, the “growth rescue (activation)” value is inactive: -2.49%. On to `Cc1ccc2c(CC(=O)NCCc3ccc(S(N)(=O)=O)cc3)coc2c1`, for which the “growth rescue (activation)” value is inactive: 10.9%. On to `O=[N+]([O-])c1ccccc1/C=N/NC1=NCCCCC1`, for which the “growth rescue (activation)” value is inactive: 6.15%. Regarding `Cc1ccc(-n2c(O)c(C=Nc3cc(C)on3)c3ccccc3c2=O)c(C)c1`, the “growth rescue (activation)” value is inactive: -7.59%. As to `O=C1c2ccccc2NC(c2ccco2)N1/N=C/c1ccco1` (centres undefined), the “growth rescue (activation)” value was inactive: -8.22%. With `CC1(C(=O)N2CCCCC2)CCN1C(=O)c1ccccc1CCc1ccccc1` (centres undefined), the “growth rescue (activation)” value is inactive: 6.71%. The figure for `O=C(C1CCN(CCCc2ccccc2)CC1)N(CCc1ccccc1)Cc1ccccc1` is inactive: -3.22%; for `O=C(CSc1nnc2c(Cl)cc(C(F)(F)F)cn12)N(Cc1ccccc1)Cc1ccccc1` it is inactive: 18.3%; for `CC(C)Cn1c(=O)c(-[n+]2ccccc2)c([O-])c2ccccc21` it is inactive: -3.9%. Turning to `O=C(c1cccs1)N(c1ccc(F)cc1)C1C=CS(=O)(=O)C1` (centres undefined), the “growth rescue (activation)” value is inactive: -0.772%. Turning to `CCNC(=O)/C(C#N)=C/c1c(N2CCN(c3ccc(OC)cc3)CC2)nc2c(C)cccn2c1=O`, the “growth rescue (activation)” value was inactive: 3.42%.

As for `CCC1=Nc2cc(C(=O)NCc3cccnc3)ccc2Sc2ccc(C)cc21`, the “growth rescue (activation)” value was inactive: 0.868%.
